Measurements published in PubChem BioAssay (NCATS).
Inconclusive results, whose numbers are uncertain, are shown with a selection of clear calls. A potency beside an inconclusive call is a rough fit, not a confirmed value. Calls of active or inactive are those of the source. Calls follow the shape of the dose curve; as a rule, active = well fitted curve in the direction sought with a large enough effect; inconclusive = small, poorly fitted or top-dose-only effect, or another doubt; inactive = no such curve, though single readings can be large; an effect the other way counts as inactive or inconclusive.

Tests used:
[1] = BET inhibitor-based combinations targeting novel dependencies in MECOM-rearranged (r) AML: UCSD-AML1 cell line (AID 2202235); settings: UCSD-AML1 AML cells viability, CellTiter-Glo, 48 h; series mostly up to 46 µM; also: nearly all actives have a fitted effect of over 40% in size
Summary of the method: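 Luminescent ATP readout (CellTiter-Glo, 15 min at room temperature) after 48 hr drug exposure gave viability. Dose-response curves, normalized to DMSO and empty-well controls, were summarized as area under the curve and its mean-centred Z-score.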

[2] = BET inhibitor-based combinations targeting novel dependencies in MECOM-rearranged (r) AML: AML-191 cell line (AID 2202236; also: nearly all actives have a fitted effect of over 35% in size)
Summary of the method: (§1)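 Luminescent ATP readout (CellTiter-Glo) after 48 hr drug exposure gives viability. Curves span 11 concentrations and are normalized to DMSO and empty wells. Activity is reported as area under the curve and its Z-transform within each cell line.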

[3] = BET inhibitor-based combinations targeting novel dependencies in MECOM-rearranged (r) AML: AML-194 cell line (AID 2202237; also: nearly all actives have a fitted effect of over 40% in size)
Summary of the method: as §1
Potency is read from the fitted curve at half-maximal effect; tags tell the direction and shape of the fitted curve.

| SMILES | Potency [1] | Potency [2] | Potency [3] |
| --- | --- | --- | --- |
| C/C(=N\NC(=S)N1CCC1)c1ccccn1 | active: 0.0417 µM | active: 0.0372 µM | – |
| CS(=O)(=O)c1ccc(-c2nnc(/C=C/c3nnc(-c4ccc(C#N)cc4)o3)n2-c2ccccc2Cl)nc1 | inactive | – | inactive |
| CCn1nc(C2CCN(C(=O)CCO)CC2)nc1-c1cnc(N)c(-c2nnc(C(C)(C)C)o2)n1 | active: 5.9 µM | inconclusive: 8.33 µM [inhibitor, partial curve] | inconclusive: 8.33 µM [inhibitor, partial curve] |
| O=C(Nc1nnc(-c2ccco2)o1)c1cc(-c2ccccc2)nc2ccccc12 | active: 8.33 µM | – | active: 13.2 µM |
| Cc1cc(O[C@@H](CCC(F)(F)F)c2ccc(C(=O)NCCC(=O)O)cc2)cc(C)c1-c1ccc(C(C)(C)C)cc1 | inconclusive: 9.34 µM [inhibitor, partial curve, poor fit] | – | active: 26.3 µM |
| C=CCNC1=C2CC(C)CC(OC)C(O)C(C)/C=C(\C)C(OC(N)=O)C(OC)/C=C/C=C(\C)C(=O)NC(=CC1=O)C2=O (stereo unspecified) | active: 1.32 µM | – | inconclusive: 3.32 µM [inhibitor, full curve] |
| Cn1nccc1Nc1nccc(-c2cc3c(s2)C(C)(C)N(CCN2CCOCC2)C3=O)n1 | inconclusive: 4.17 µM [inhibitor, full curve] | inconclusive: 2.95 µM [inhibitor, full curve] | inconclusive: 5.9 µM [inhibitor, partial curve] |
| Nc1cc(C(F)(F)F)c(-c2nc(N3CCOCC3)nc(N3CCOCC3)n2)cn1 | active: 0.934 µM | – | active: 2.35 µM |
| CC(C)[C@H]1C(=O)N[C@@H](CCCN=C(N)N)C(=O)NCC(=O)N[C@@H](CC(=O)O)C(=O)N[C@H](Cc2ccccc2)C(=O)N1C | inactive | – | inactive |
| O=C1NC(=O)/C(=C/c2ccc3nccc(-c4ccncc4)c3c2)S1 | inconclusive: 0.59 µM [inhibitor, full curve, poor fit] | – | inconclusive: 0.934 µM [inhibitor, full curve, poor fit] |
| O=C(Nc1ccc(-c2ccnc(Nc3ccc(N4CCOCC4)cc3)n2)cc1)C1CCCN1 (stereo unspecified) | active: 1.66 µM | inconclusive: 9.34 µM [inhibitor, partial curve] | inconclusive: 18.6 µM [inhibitor, partial curve] |
| N#Cc1cc2cc(CN3CCC(Nc4ncnc5sc(CC(F)(F)F)cc45)CC3)c(O)cc2n1Cc1cn[nH]c1 | inconclusive: 29.5 µM [inhibitor, single point] | inconclusive: 29.5 µM [inhibitor, single point] | – |
| C=C1CCC2[C@](C)(CO)C(O)CC[C@]2(C)C1C/C=C1/C(=O)OCC1O (stereo partly specified) | – | active: 7.42 µM | – |
| C[C@H]1O[C@H](O[C@H]2[C@H](O)[C@@H](O)[C@@H](O[C@H]3[C@H](O)[C@@H](O)C(O)O[C@@H]3CO)O[C@@H]2CO)[C@H](O)[C@@H](O)[C@@H]1N[C@H]1C=C(CO)[C@@H](O)[C@H](O)[C@H]1O (stereo partly specified) | inactive | inconclusive: 11.8 µM [inhibitor, single point] | inactive |
| CONC(=O)Nc1ccc(-c2sc3c(c2CN(C)C)c(=O)n(-c2ccc(OC)nn2)c(=O)n3Cc2c(F)cccc2F)cc1 | inactive | inconclusive: 3.72 µM [inhibitor, full curve, poor fit] | – |
| Cc1ccc(S(=O)(=O)Cc2nc(-c3ccc(C(=O)NCc4cccnc4)cc3)oc2C)cc1 | inconclusive: 0.0295 µM [inhibitor, full curve] | – | inconclusive: 18.6 µM [inhibitor, partial curve] |
| CCN(CC)CCCCNc1ncc2c(n1)N(C)C(=O)N(c1c(Cl)c(OC)cc(OC)c1Cl)C2 | inconclusive: 11.8 µM [inhibitor, single point] | inconclusive: 13.2 µM [inhibitor, partial curve] | – |
| C/C(=N\NC(=O)c1cccc(S(=O)(=O)N2CCOCC2)c1)c1cc(Cl)ccc1O | inconclusive: 3.32 µM [inhibitor, full curve] | – | active: 4.17 µM |
| COCc1c(-c2ccc(NC(=O)Nc3cc(C(F)(F)F)ccc3F)c(F)c2)c2c(N)ncnn2c1CN1CCOCC1 | – | active: 5.9 µM | – |
| Cc1ccc(NC(=O)Nc2nnc(Sc3ncnc4cc(OCCCN5CCOCC5)ccc34)s2)cc1 | inconclusive: 3.72 µM [inhibitor, full curve] | inconclusive: 6.61 µM [inhibitor, partial curve] | – |
| Cc1cc(-c2cnn3c(NCC4CC(C)(O)C4)cc(Oc4cccnc4)nc23)ccc1C(=O)NC1CC1 (stereo unspecified) | inconclusive: 0.235 µM [inhibitor, full curve, poor fit] | inconclusive: 0.263 µM [inhibitor, full curve] | – |
| CO[C@H]1/C=C\C=C(\C)C(=O)NC2=CC(=O)C(NCCN(C)C)=C(C[C@@H](C)C[C@H](OC)[C@H](O)[C@@H](C)/C=C(/C)[C@@H]1OC(N)=O)C2=O | – | active: 1.05 µM | – |
| Cc1ccc(O)c(C(CCN(C(C)C)C(C)C)c2ccccc2)c1 (stereo unspecified) | inconclusive: 33.2 µM [inhibitor, single point] | inconclusive: 37.2 µM [inhibitor, single point] | inactive |
| O=C(NOCC(O)CO)c1cc(Br)c(F)c(F)c1Nc1ccc(I)cc1F (stereo unspecified) | inconclusive: 0.742 µM [inhibitor, full curve] | inconclusive: 0.132 µM [inhibitor, full curve] | inconclusive: 0.525 µM [inhibitor, full curve] |
| COC(=O)Nc1nc2ccc(C(=O)c3ccc(F)cc3)cc2[nH]1 | – | active: 0.332 µM | – |
| O=S(=O)(Nc1ccc(-c2cccnc2)c2cccnc12)c1cccc(C(F)(F)F)c1 | inconclusive: 10.5 µM [inhibitor, single point] | – | active: 7.42 µM |
| C/C(=C\c1csc(C)n1)[C@@H]1C[C@@H]2O[C@]2(C)CCC[C@H](C)[C@H](O)[C@@H](C)C(=O)C(C)(C)[C@@H](O)CC(=O)N1 | active: 0.0166 µM | active: 0.0235 µM | – |
